These results are taken from PubChem BioAssay (NCI).

This experiment concerns NCI-H322M lung. In words: DTP human tumour cell line panel, 48 h.

Molecules are shown by their SMILES.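 Cells were grown in 96-well plates and exposed to each compound for 48 hours at five concentrations; endpoints were interpolated linearly between bracketing concentrations, or set to the highest concentration if not reached. Abbreviation: GI50, concentration required for 50% inhibition of growth. TGI marks complete inhibition of growth.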

A word on the TGI: it is the concentration giving total growth inhibition. `CC(C)(C)OC(=O)C1/C(=C/CO)CN1C(=O)OC(C)(C)C` (stereo not drawn) returned a TGI of over 100 µM.

As usually defined, the GI50 is the concentration giving 50% growth inhibition. As to `COc1ccc(OC)c(-c2nc3sccn3c2/C=C2/C(=O)Nc3ccccc32)c1`, the GI50 was 1.69 µM and the TGI turned out to be 29.5 µM.

Compound `O=C1OC(c2ccc([N+](=O)[O-])cc2)=N/C1=C\c1ccc(O)cc1` yielded a TGI of over 100 µM.

With `CN(C)CCCC1(c2ccc(F)cc2)OCc2cc(-c3ccc4cc[nH]c4c3)ccc21` (stereo not drawn), the GI50 is 1.85 µM and the TGI was determined as 3.62 µM.

Regarding `CCCCNc1nc(SC)nc2nc[nH]c12`, the TGI was over 100 µM.

`C#C[C@]1(O)CC[C@H]2[C@@H]3CC=C4c5nc(Nc6ccc(OC)cc6OC)sc5CC[C@]4(C)[C@H]3CC[C@@]21C`: the GI50 was 2.72 µM and the TGI stood at 23.1 µM.

With `N#Cc1ccc(-n2cnc(NC(=O)[C@H]3CCN(C#N)C3)c2)cc1`, the GI50 was 2.21 µM and the TGI is 23.9 µM.

Consider `O=C(O)[C@@H]1C[C@@H](O)CN1`, for which the TGI is over 100 µM.

Turning to `CCNC1CC(C(C)(C)NCC)CC=C1C` (stereo not drawn), the TGI is over 100 µM.
